According to the supplement of paper PMC8728848:
The other results are listed elsewhere or left out.

Experiments:
Test in all cases: glycan array binding signal (z-score within array); higher = stronger binding
Settings in all cases: glycan notation: IUPAC condensed, linker removed
[1] = target: Fuc(a1-2)Gal6S(b1-3)GlcNAc
Method in brief: (§1)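 The binding signal is a Z-score computed within each array. Data were drawn from 3228 arrays in the Consortium for Functional Glycomics database, restricted to those with a known protein sequence. Scores were averaged over arrays of the same protein sequence at different concentrations or buffers, and over linkers, and negative values can be taken as non-binding.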

[2] = target: Fuc(a1-2)Gal6S(b1-3)GlcNAc6S
Method in brief: as §1

Fuc(a1-2)Gal6S(b1-4)Glc = target: Fuc(a1-2)Gal6S(b1-4)Glc
Method in brief: as §1

[3] = target: Fuc(a1-2)Gal6S(b1-4)Glc6S
Method in brief: as §1

Fuc(a1-2)[Gal(a1-3)]Gal = target: Fuc(a1-2)[Gal(a1-3)]Gal
Method in brief: as §1

[4] = target: Fuc(a1-2)[Gal(a1-3)]Gal(b1-3)GalNAc
Method in brief: as §1

[5] = target: Fuc(a1-2)[Gal(a1-3)]Gal(b1-3)GalNAc(b1-3)Gal(a1-4)Gal(b1-4)Glc
Method in brief: as §1

[6] = target: Fuc(a1-2)[Gal(a1-3)]Gal(b1-3)GlcNAc
Method in brief: as §1

[7] = target: Fuc(a1-2)[Gal(a1-3)]Gal(b1-3)GlcNAc(b1-2)Man(a1-3)[Fuc(a1-2)[Gal(a1-3)]Gal(b1-3)GlcNAc(b1-2)Man(a1-6)]Man(b1-4)GlcNAc(b1-4)GlcNAc
Method in brief: as §1

[8] = target: Fuc(a1-2)[Gal(a1-3)]Gal(b1-3)GlcNAc(b1-2)Man(a1-3)[Fuc(a1-2)[Gal(a1-3)]Gal(b1-3)GlcNAc(b1-2)Man(a1-6)]Man(b1-4)GlcNAc(b1-4)[Fuc(a1-6)]GlcNAc
Method in brief: as §1

[9] = target: Fuc(a1-2)[Gal(a1-3)]Gal(b1-3)GlcNAc(b1-3)GalNAc
Method in brief: as §1

[10] = target: Fuc(a1-2)[Gal(a1-3)]Gal(b1-3)GlcNAc(b1-6)GalNAc
Method in brief: as §1

[11] = target: Fuc(a1-2)[Gal(a1-3)]Gal(b1-4)Glc
Method in brief: as §1

[12] = target: Fuc(a1-2)[Gal(a1-3)]Gal(b1-4)GlcNAc
Method in brief: as §1

[13] = target: Fuc(a1-2)[Gal(a1-3)]Gal(b1-4)GlcNAc(b1-2)Man
Method in brief: as §1

[14] = target: Fuc(a1-2)[Gal(a1-3)]Gal(b1-4)GlcNAc(b1-2)Man(a1-3)[Fuc(a1-2)[Gal(a1-3)]Gal(b1-4)GlcNAc(b1-2)Man(a1-6)]Man(b1-4)GlcNAc(b1-4)GlcNAc
Method in brief: as §1

[15] = target: Fuc(a1-2)[Gal(a1-3)]Gal(b1-4)GlcNAc(b1-2)Man(a1-3)[Fuc(a1-2)[Gal(a1-3)]Gal(b1-4)GlcNAc(b1-2)Man(a1-6)]Man(b1-4)GlcNAc(b1-4)[Fuc(a1-6)]GlcNAc
Method in brief: as §1

[16] = target: Fuc(a1-2)[Gal(a1-3)]Gal(b1-4)GlcNAc(b1-3)GalNAc
Method in brief: as §1

[17] = target: Fuc(a1-2)[Gal(a1-3)]Gal(b1-4)GlcNAc(b1-3)[Fuc(a1-2)[Gal(a1-3)]Gal(b1-4)GlcNAc(b1-6)]GalNAc
Method in brief: as §1

[18] = target: Fuc(a1-2)[Gal(a1-3)]Gal(b1-4)GlcNAc(b1-6)GalNAc
Method in brief: as §1

[19] = target: Fuc(a1-2)[Gal(a1-3)]Gal(b1-4)[Fuc(a1-3)]Glc
Method in brief: as §1

[20] = target: Fuc(a1-2)[Gal(a1-3)]Gal(b1-4)[Fuc(a1-3)]GlcNAc
Method in brief: as §1

B1: AT1G73650(15) (Arabidopsis thaliana), F4HRY1 (protein)
chain: MGTVLDSHFLALTAIVTVIYQFIFFVITALFKFDQVTDFAGSTNFVILAVLTLVLKASWHFRQIVLTLLVVVWGLRLGIFLLMETRILQWGEDRRFDEQRGNIVRLIIFWTLQAVWVWTVSLPLTLVNASDGGGSLKPADVIGWTMETWVFGFLIEAAADQQKLSFKNSPENRGKWCDVGVWKYSRHPNYFGEMETLLWWGIFVAASPVLEGAEYLVIFGPLFLTLLLLFVSGIPLLEASADKKHGNSGAYRSYKKTTSPLILFPRGVYGNLPGWFKTVFLFEFPFYSRNLPQEGRLQNSKEKEVKDD
glycan array binding signal (z-score) [1]: -0.429
glycan array binding signal (z-score) [2]: -0.149
glycan array binding signal (z-score) (Fuc(a1-2)Gal6S(b1-4)Glc): -0.553
glycan array binding signal (z-score) [3]: -0.674
glycan array binding signal (z-score) (Fuc(a1-2)[Gal(a1-3)]Gal): 0.489
glycan array binding signal (z-score) [4]: -0.092
glycan array binding signal (z-score) [5]: -0.635
glycan array binding signal (z-score) [6]: -0.411
glycan array binding signal (z-score) [7]: -0.546
glycan array binding signal (z-score) [8]: 0.255
glycan array binding signal (z-score) [9]: -0.453
glycan array binding signal (z-score) [10]: -0.472
glycan array binding signal (z-score) [11]: -0.4
glycan array binding signal (z-score) [12]: -0.073
glycan array binding signal (z-score) [13]: -0.406
glycan array binding signal (z-score) [14]: 1.84
glycan array binding signal (z-score) [15]: 0.568
glycan array binding signal (z-score) [16]: -0.479
glycan array binding signal (z-score) [17]: -0.263
glycan array binding signal (z-score) [18]: 0.189
glycan array binding signal (z-score) [19]: -0.494
glycan array binding signal (z-score) [20]: -0.438
